Measured values reported in patent publication US9789203B2, “cKIT antibody drug conjugates” (Novartis AG, priority 2013, dated 2017).
“Also recorded” adds a separate entry of the source.

What was measured:
[1] = system: GIST-T1, GIST430, NCI-H526, NCI-H1048, CMK11-5, Uke-1 cells; test: In vitro activity of cKIT-MCC-DM1 ADCs on GIST, SCLC and AML cell lines (Cell titer Glo); assay type: cell-based, human; settings: 5 to 8 days, IgG-MCC-DM1 as control, FIGS. 4-9
Procedure: Following conjugation to the MCC-DM1 linker-payload, the ability of the antibody drug conjugates (ADCs) to inhibit the proliferation of AML, SCLC and GIST cell lines was determined. For a listing of the cells used in these experiments by supplier see Example 10 above.
Briefly, cells were cultured in a tissue culture incubator at 37° C. with 5% CO2 in culture medium as recommended by the supplier. On the day of the assay, cells were washed twice with PBS (Cellgro, Cat #21-031-CV, Corning Tewksbury, Mass.), prior to being treated with 0.1% trypsin-EDTA (in-house technical services) for 5 min and resuspended in the recommended culture medium. Cells were then counted and seeded in 96 well plates (Costar catalog #3603, Corning, Tewksbury, Mass.) at densities of 5,000 cells/well for AML and SCLC cells and 10,000 cells/well for GIST cells in 100 μl of cell culture medium. A duplicate plate was generated for a day 0 measurement and all plates were incubated in a tissue culture incubator at 37° C. with 5% CO2 overnight. Following this incubation, 100 μl/well of Cell titer Glo® reagent (Promega catalog # G7573, Promega, Madison, Wis.) was added to the day 0 plates, which were then shaken gently for 2 min, incubated for 10 min, and the resulting luminescence intensity was measured using a Perkin Elmer Wallac Microbeta® Trilux plate reader (Perkin Elmer, Waltham, Mass.). Test ADCs were serially diluted to a 3× stock solution in the appropriate cell culture medium and 50 μl of 3× serially diluted ADCs were added (final assay concentration of 0.0002-68 nM DM1 equivalents) prior to incubation in a tissue culture incubator at 37° C. with 5% CO2 for 5 to 8 days. Following this incubation period, relative cell viability was determined via the addition of Cell titer Glo® reagent as described above. The effect of the ADCs on cell proliferation was calculated using the average of the duplicates as follows: (% of maximum affection (AMAX)=(untreated-highest ADC concentration treated)*100).
The % inhibition data was fitted to a 4-parameter logistic equation and GI50 values were determined. […]

[2] = target: rat cKIT ECD; test: SPR (Biacore 2000) affinity measurement; assay type: binding; settings: 25° C., antibody captured, ECD in solution
Procedure: Affinity of the antibodies to cKIT species orthologues and also to cKIT was determined using SPR technology using a Biacore® 2000 instrument (GE Healthcare, Pittsburgh, Pa.) and with CM5 sensor chips.
Briefly, HBS-P (0.01 M HEPES, pH 7.4, 0.15 M NaCl, 0.005% Surfactant P20) supplemented with 2% Odyssey® blocking buffer (Li-Cor Biosciences, Lincoln, Nebr.) was used as the running buffer for all the experiments. The immobilization level and analyte interactions were measured by response unit (RU). Pilot experiments were performed to test and confirm the feasibility of the immobilization of the anti-human Fc antibody (Catalog number BR100839, GE Healthcare, Pittsburgh, Pa.) and the capture of the test antibodies.
For kinetic measurements, the experiments were performed in which the antibodies were captured to the sensor chip surface via the immobilized anti-human Fc antibody and the ability of the cKIT proteins to bind in free solution was determined Briefly, 25 μg/ml of anti-human Fc antibody at pH 5 was immobilized on a CM5 sensor chip through amine coupling at flow rate of 5 μl/minute on all two flow cells to reach 10,500 RUs. 0.1-1 μg/ml of test antibodies were then injected at 10 μl/min for 1 minute. Captured levels of the antibodies were generally kept below 200 RUs. Subsequently, 3.125-50 nM of cKIT receptor extracellular domains (ECD) were diluted in a 2-fold series and injected at a flow rate of 40 μl/min for 3 min over both reference and test flow cells. Table of tested ECDs is listed below. Dissociation of the binding was followed for 10 min. After each injection cycle, the chip surface was regenerated with 3 M MgCl2 at 10 μl/min for 30 s.

[3] = system: primary human mast cells; test: Mast cell degranulation (β-hexosaminidase release); assay type: cell-based; settings: 0.05-100 nM, 90 min, FIG. 19
Procedure: Primary human mast cells were cultured from peripheral human blood according to the methods described by Saito et al., (supra). […] Cells were then centrifuged and the supernatants were transferred into 96-well black-walled plates prior to the addition of the β-hexosaminidase substrate. Following 90 min incubation at 37° C., the reaction was stopped by the addition of tris-base (Sigma, Cat # T1503-500G, pH 12, St. Louis, Mo.) and the fluorescence intensity was recorded on the Envision® plate reader.

[4] = system: MO7e cells grown in SCF; test: Mo7e proliferation in the presence of SCF (Cell titer Glo); assay type: cell-based, human; settings: 5 days, FIG. 15
Procedure: To evaluate the potential antagonistic properties of the naked antibodies and the ability of the antibody drug conjugates (ADCs) to inhibit the proliferation of a cKIT-expressing cell line, MO7e (DSMZ, Catalog # ACC-104, Braunschweig, Del.) were grown in the presence or absence of cKIT ligand, Stem Cell Factor (SCF), for survival. MO7e cells were grown in either 10 ng/ml human granulocyte-macrophage colony-stimulating factor GM-CSF (R&D Systems Cat#215-GM, Minneapolis, Minn.) or 10 ng/ml human Stem Cell Factor SCF (R&D Systems Cat#255-SC) prior to seeding in 96 well plates (Costar Cat #3904, Corning, Tewksbury, Mass.) at 5000 cells/well in 100 μl dilution medium. A duplicate plate was generated for a day 0 measurement and all plates were incubated in a tissue culture incubator at 37° C. with 5% CO2 overnight. Following this incubation, an additional 50 μl of dilution medium was added, followed by 90 μl/well of Cell titer Glo® reagent (Promega Cat# G7573, Madison, Wis.) to each well of the designated “day 0” plate. Assay plates were shaken gently for 20 min and the resulting luminescence intensity was measured using a Perkin Elmer 1450 Microbeta TriLux® plate reader (Perkin Elmer, Waltham, Mass.). Test naked Abs and ADCs were prepared at 3× concentration; 30 μg/ml in the appropriate cell culture medium and diluted serially 5-fold for 8 points. Medium only wells were also generated to act as negative controls. 50 μl of 3× serially diluted antibodies or ADCs were added (final assay concentration 0.0009-68 nM) prior to incubation in a tissue culture incubator at 37° C. with 5% CO2 for 5 days. Following this incubation period, relative cell viability was determined via the addition of Cell titer Glo reagent as described above. The effect of the ADCs on cell proliferation was calculated using the average of the duplicates as follows: (% Inhibition=(ADC or Ab treated)/(untreated)*100) The % inhibition data was fitted to a 4-parameter logistic equation and IC50 values were determined.

Molecule | inhibition of cell proliferation [1] | Affinity to rat cKIT [2] | mast cell degranulation [3] | inhibition of cell proliferation [4]
NEG085 (antibody) heavy: EVQLVESGGGLVQPGGSLRLSCAASGFAFSGYYMAWVRQAPGKGLEWVANINYPGSSTYYLDSVKGRFTISRDNAKNSLYLQMNSLRAEDTAVYYCARGDYYGTTYWYFDVWGQGTTVTVSSASTKGPSVFPLAPSSKSTSGGTAALGCLVKDYFPEPVTVSWNSGALTSGVHTFPAVLQSSGLYSLSSVVTVPSSSLGTQTYICNVNHKPSNTKVDKRV[human IgG1 Fc omitted here] light: DIQMTQSPSSLSASVGDRVTITCRASQSISSYLNWYQQKPGKAPKLLIYYTSRLQSGVPSRFSGSGSGTDFTLTISSLQPEDFATYYCQQGRRLWSFGGGTKVEIKRTVAAPSVFIFPPSDEQLKSGTASVVCLLNNFYPREAKVQWKVDNALQSGNSQESVTEQDSKDSTYSLSSTLTLSKADYEKHKVYACEVTHQGLSSPVTKSFNRGEC | very effective in reducing cell proliferation | Not reactive | do not mediate primary human mast cell degranulation; also recorded: do not induce mast cell degranulation | do not have this effect
NEG085-MCC-DM1 (conjugate) heavy: EVQLVESGGGLVQPGGSLRLSCAASGFAFSGYYMAWVRQAPGKGLEWVANINYPGSSTYYLDSVKGRFTISRDNAKNSLYLQMNSLRAEDTAVYYCARGDYYGTTYWYFDVWGQGTTVTVSSASTKGPSVFPLAPSSKSTSGGTAALGCLVKDYFPEPVTVSWNSGALTSGVHTFPAVLQSSGLYSLSSVVTVPSSSLGTQTYICNVNHKPSNTKVDKRV[human IgG1 Fc omitted here] light: DIQMTQSPSSLSASVGDRVTITCRASQSISSYLNWYQQKPGKAPKLLIYYTSRLQSGVPSRFSGSGSGTDFTLTISSLQPEDFATYYCQQGRRLWSFGGGTKVEIKRTVAAPSVFIFPPSDEQLKSGTASVVCLLNNFYPREAKVQWKVDNALQSGNSQESVTEQDSKDSTYSLSSTLTLSKADYEKHKVYACEVTHQGLSSPVTKSFNRGEC | – | – | – | inhibits cell proliferation of M07e cells at a low concentration
20376 (antibody) heavy: QVQLVQSGAEVKKPGSSVKVSCKASGGTFSSYAISWVRQAPGQGLEWMGGIIPMSGRTTYAQKFQGRVTITADESTSTAYMELSSLRSEDTAVYYCARDYGPEAPDYGQSTSYFWYYAFDPWGQGTLVTVSSASTKGPSVFPLAPSSKSTSGGTAALGCLVKDYFPEPVTVSWNSGALTSGVHTFPAVLQSSGLYSLSSVVTVPSSSLGTQTYICNVNHKPSNTKVDKRV[human IgG1 Fc omitted here] light: DIELTQPPSVSVSPGQTASITCSGDNIPSYFVHWYQQKPGQAPVLVIYDDNDRPSGIPERFSGSNSGNTATLTISGTQAEDEADYYCSSWDQDTVVFGGGTKLTVLGQPKAAPSVTLFPPSSEELQANKATLVCLISDFYPGAVTVAWKADSSPVKAGVETTTPSKQSNNKYAASSYLSLTPEQWKSHRSYSCQVTHEGSTVEKTVAPTECS | very effective in reducing cell proliferation | Not reactive | do not mediate primary human mast cell degranulation; also recorded: do not induce mast cell degranulation | do not have this effect
